# Laboratory results: the supplement of paper PMC8728848
# The other results are listed elsewhere or left out.
# B1: CaSRK1 (Capsicum annuum) (protein)
# chain: MALCKIFPFAFILLSCSCYLISGQRFDYPTANLSTTWINSVSAPHSIDYTDGSRIRAILLRGTFGPRYACGFYCNGNCESYLFAIFIVQTNSASQITSPAIGFPQVVWSANRNNPVKINSTLQLTAEGDLVLRDADGTLAWSTNTAGKSVAGLSLTDEGNLALFDSKNATVWQSFDHPTDALVPGQKLVPGMKLTASVSRTNWTAGGLFALSAIDNGLVAFVESNPPQKYFEASVGGSNTSGGSNYVKYLNGSLTLFTHSADTTELILISITPASSAQYMKLESNGHLKVYEWTSRGWREVDDLLTGFRGECNYPTVCGRYGICTMGQCSCPTSSSSRTYFRPIDVRRPSLGCSEVTKLTCQNTKKHSPLEVEDVDYFAFKAGISDTDLNTCKRACLEKCSCKAAFFRSGLNSSRTRGDCYLPTEIFSIMNNEKDRTRYDSVAFIKVQV
# Key:
# Assay in all cases: glycan array binding signal (z-score within array); higher = stronger binding
# Settings in all cases: glycan notation: IUPAC condensed, linker removed
# Gal3S6S(b1-4)GlcNAc6S = molecular target: Gal3S6S(b1-4)GlcNAc6S
# Procedure, shortened: (§1)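 Columns mapping to the same glycan were averaged after glycan names were converted to IUPAC-condensed notation. The data come from 3228 arrays in the Consortium for Functional Glycomics database, limited to those with an available protein sequence. Binding is reported as a within-array Z-score averaged across arrays of one protein sequence and across linkers.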
# Gal4S(b1-4)GlcNAc = molecular target: Gal4S(b1-4)GlcNAc
# Procedure, shortened: as §1
# Gal4S6S(b1-4)GlcNAc = molecular target: Gal4S6S(b1-4)GlcNAc
# Procedure, shortened: as §1
# Gal6P(b1-4)GlcNAc = molecular target: Gal6P(b1-4)GlcNAc
# Procedure, shortened: as §1
# Gal6S(b1-3)GlcNAc = molecular target: Gal6S(b1-3)GlcNAc
# Procedure, shortened: as §1
# Gal6S(b1-3)GlcNAc6S = molecular target: Gal6S(b1-3)GlcNAc6S
# Procedure, shortened: as §1
# Gal6S(b1-4)Glc = molecular target: Gal6S(b1-4)Glc
# Procedure, shortened: as §1
# Gal6S(b1-4)Glc6S = molecular target: Gal6S(b1-4)Glc6S
# Procedure, shortened: as §1
# Gal6S(b1-4)GlcNAc = molecular target: Gal6S(b1-4)GlcNAc
# Procedure, shortened: as §1
# Gal6S(b1-4)GlcNAc6S = molecular target: Gal6S(b1-4)GlcNAc6S
# Procedure, shortened: as §1
# GalNAc(a1-3)Gal = molecular target: GalNAc(a1-3)Gal
# Procedure, shortened: as §1
# GalNAc(a1-3)GalNAc = molecular target: GalNAc(a1-3)GalNAc
# Procedure, shortened: as §1
# [1] = molecular target: GalNAc(a1-3)GalNAc(b1-3)Gal(a1-4)Gal(b1-4)Glc
# Procedure, shortened: as §1
# [2] = molecular target: GalNAc(a1-3)GalNAc(b1-3)Gal(a1-4)Gal(b1-4)GlcNAc
# Procedure, shortened: as §1
# GalNAc(b1-3)Gal = molecular target: GalNAc(b1-3)Gal
# Procedure, shortened: as §1
# [3] = molecular target: GalNAc(b1-3)Gal(a1-4)Gal(b1-4)GlcNAc
# Procedure, shortened: as §1
# [4] = molecular target: GalNAc(b1-3)Gal(a1-4)Gal(b1-4)GlcNAc(b1-3)Gal(b1-4)Glc
# Procedure, shortened: as §1
# [5] = molecular target: GalNAc(b1-3)Gal(a1-6)Gal(b1-4)Glc
# Procedure, shortened: as §1
# GalNAc(b1-3)GalNAc = molecular target: GalNAc(b1-3)GalNAc
# Procedure, shortened: as §1
# GalNAc(b1-3)GlcNAc = molecular target: GalNAc(b1-3)GlcNAc
# Procedure, shortened: as §1
# GalNAc(b1-4)Gal(b1-4)Glc = molecular target: GalNAc(b1-4)Gal(b1-4)Glc
# Procedure, shortened: as §1
# GalNAc(b1-4)GlcNAc = molecular target: GalNAc(b1-4)GlcNAc
# Procedure, shortened: as §1
# [6] = molecular target: GalNAc(b1-4)GlcNAc(b1-2)Man
# Procedure, shortened: as §1
# [7] = molecular target: GalNAc(b1-4)GlcNAc(b1-2)Man(a1-3)[GalNAc(b1-4)GlcNAc(b1-2)Man(a1-6)]Man(b1-4)GlcNAc(b1-4)GlcNAc
# Procedure, shortened: as §1
# [8] = molecular target: GalNAc(b1-4)GlcNAc(b1-3)GalNAc(b1-4)GlcNAc
# Procedure, shortened: as §1
# GalNAc(b1-4)GlcNAc6S = molecular target: GalNAc(b1-4)GlcNAc6S
# Procedure, shortened: as §1
# GalNAc(b1-6)GalNAc = molecular target: GalNAc(b1-6)GalNAc
# Procedure, shortened: as §1
# GalNAc3S(b1-4)GlcNAc = molecular target: GalNAc3S(b1-4)GlcNAc
# Procedure, shortened: as §1
# GalNAc3S(b1-4)GlcNAc3S = molecular target: GalNAc3S(b1-4)GlcNAc3S
# Procedure, shortened: as §1
# [9] = molecular target: GalNAc3S(b1-4)[Fuc(a1-3)]GlcNAc
# Procedure, shortened: as §1
# GalNAc4S6S(b1-4)GlcNAc = molecular target: GalNAc4S6S(b1-4)GlcNAc
# Procedure, shortened: as §1
# GalNAc6S(b1-4)GlcNAc = molecular target: GalNAc6S(b1-4)GlcNAc
# Procedure, shortened: as §1
# Glc(a1-4)Glc = molecular target: Glc(a1-4)Glc
# Procedure, shortened: as §1
# [10] = molecular target: Glc(a1-4)Glc(a1-4)Glc(a1-4)Glc
# Procedure, shortened: as §1
# Glc(a1-6)Glc(a1-6)Glc = molecular target: Glc(a1-6)Glc(a1-6)Glc
# Procedure, shortened: as §1
# [11] = molecular target: Glc(a1-6)Glc(a1-6)Glc(a1-6)Glc
# Procedure, shortened: as §1
# Glc(b1-4)Glc = molecular target: Glc(b1-4)Glc
# Procedure, shortened: as §1
# Glc(b1-6)Glc = molecular target: Glc(b1-6)Glc
# Procedure, shortened: as §1
binder,measurement,setting,value
B1,glycan array binding signal (z-score),Gal3S6S(b1-4)GlcNAc6S,2.4
same,glycan array binding signal (z-score),Gal4S(b1-4)GlcNAc,-0.406
same,glycan array binding signal (z-score),Gal4S6S(b1-4)GlcNAc,1.02
same,glycan array binding signal (z-score),Gal6P(b1-4)GlcNAc,-0.342
same,glycan array binding signal (z-score),Gal6S(b1-3)GlcNAc,-0.512
same,glycan array binding signal (z-score),Gal6S(b1-3)GlcNAc6S,0.99
same,glycan array binding signal (z-score),Gal6S(b1-4)Glc,-0.026
same,glycan array binding signal (z-score),Gal6S(b1-4)Glc6S,0.802
same,glycan array binding signal (z-score),Gal6S(b1-4)GlcNAc,-0.454
same,glycan array binding signal (z-score),Gal6S(b1-4)GlcNAc6S,0.37
same,glycan array binding signal (z-score),GalNAc(a1-3)Gal,-0.472
same,glycan array binding signal (z-score),GalNAc(a1-3)GalNAc,-0.501
same,glycan array binding signal (z-score),[1],-0.518
same,glycan array binding signal (z-score),[2],-0.509
same,glycan array binding signal (z-score),GalNAc(b1-3)Gal,0.477
same,glycan array binding signal (z-score),[3],-0.291
same,glycan array binding signal (z-score),[4],0.694
same,glycan array binding signal (z-score),[5],0.166
same,glycan array binding signal (z-score),GalNAc(b1-3)GalNAc,-0.529
same,glycan array binding signal (z-score),GalNAc(b1-3)GlcNAc,-0.191
same,glycan array binding signal (z-score),GalNAc(b1-4)Gal(b1-4)Glc,1.01
same,glycan array binding signal (z-score),GalNAc(b1-4)GlcNAc,-0.168
same,glycan array binding signal (z-score),[6],-0.561
same,glycan array binding signal (z-score),[7],0.55
same,glycan array binding signal (z-score),[8],0.837
same,glycan array binding signal (z-score),GalNAc(b1-4)GlcNAc6S,0.352
same,glycan array binding signal (z-score),GalNAc(b1-6)GalNAc,-0.507
same,glycan array binding signal (z-score),GalNAc3S(b1-4)GlcNAc,-0.288
same,glycan array binding signal (z-score),GalNAc3S(b1-4)GlcNAc3S,-0.497
same,glycan array binding signal (z-score),[9],-0.511
same,glycan array binding signal (z-score),GalNAc4S6S(b1-4)GlcNAc,0.173
same,glycan array binding signal (z-score),GalNAc6S(b1-4)GlcNAc,-0.411
same,glycan array binding signal (z-score),Glc(a1-4)Glc,-0.288
same,glycan array binding signal (z-score),[10],0.933
same,glycan array binding signal (z-score),Glc(a1-6)Glc(a1-6)Glc,-0.21
same,glycan array binding signal (z-score),[11],0.961
same,glycan array binding signal (z-score),Glc(b1-4)Glc,0.369
same,glycan array binding signal (z-score),Glc(b1-6)Glc,0.326
